Results taken from PMC5105952.
Positions count from the first letter of the chain named. Names and notes keep the numbering of the source. No constants are given. Whether binding was seen depends on the method and setting. For some of these results: Binding seen in cells or lysates may run through a third protein. Some binding calls cover weakened binding; strength is not graded here. For some of these results: Where a sequence is shown, tags or fusion partners need not be part of it. Blank lines part the entries; values can stand above or below the binder they belong to.

Key:
[1] = target: T1, Ver (Drosophila melanogaster) (UniProt Q9VTZ2); test: two-hybrid; yeast three-hybrid: Tea fragments on the Gal4 activation domain, either Ver or Moi on the LexA DNA-binding domain, the other of Moi or Ver as a third stand-alone protein
T1 sequence: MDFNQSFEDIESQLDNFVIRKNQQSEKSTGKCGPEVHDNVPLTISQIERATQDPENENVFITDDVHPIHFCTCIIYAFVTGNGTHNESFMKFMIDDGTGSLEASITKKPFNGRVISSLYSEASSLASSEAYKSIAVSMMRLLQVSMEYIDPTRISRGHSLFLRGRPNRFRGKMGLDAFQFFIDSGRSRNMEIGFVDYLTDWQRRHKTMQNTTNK

[2] = target: T2, Ver L162P (Drosophila melanogaster) (UniProt Q9VTZ2); test: two-hybrid; LacZ-based yeast two-hybrid, vectors and strains as in ref. 32
T2 sequence: T1 sequence with L162P

[3] = target: T3, Ver D96G (Drosophila melanogaster) (UniProt Q9VTZ2); test: as above
T3 sequence: T1 sequence with D96G

[4] = target: T4, Ver L101P (Drosophila melanogaster) (UniProt Q9VTZ2); test: as above
T4 sequence: T1 sequence with L101P

[5] = target: T1, Ver (Drosophila melanogaster); test: as above
[6] = target: T5, 3xFLAG-Ver (Drosophila melanogaster) (UniProt Q9VTZ2); test: co-IP; single anti-FLAG purification from insect cells co-expressing 3xFLAG-Ver and V5-Moi, with or without 3xHA-Tea (baculovirus)
T5 sequence: T1 sequence

binding [1]: binds | binding [2]: no binding | binding [3]: no binding | binding [4]: no binding | binding [5]: binds
B1: Moi (protein, UniProt B7Z0L8 1-178)
chain: MSLVPEASTSRAPKYCYFFKTLLVEELELETSYHNLHYGQCALIGRLAFKANQYRLENVRVKCLPKKYSLGEGTVSLLILGLTHDKVVENRVSTGRYCIVRGEVVLHNVQHPKGAKLTAGGVYDKINSLSNDPLAQKQYLSALLATYRPAIDLWYIQVIDRAEDLLTRRLEMRSLIEK

binding [6]: binds
B2: V5-Moi (protein, UniProt B7Z0L8 1-178)
chain: B1 chain

binding [5]: no binding
B3: Moi G45R (protein, UniProt B7Z0L8 1-178)
chain: B1 chain with G45R
